Drawing on article PMC5892938, this text covers binding signal (log2 fold change) for 47 sequences.

The other results are listed elsewhere or left out. At the low end of the ranking, values are background and their order means little.

The target in this assay is GST-SBP-SLBP (stem-loop binding protein) (UniProt Q14493). The experiment in a line: targeted RNA Bind-n-Seq.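 Further: DESeq read counts versus GST-SBP nonspecific binding control pulldown.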 Conditions: RBNS binding buffer: 25 mM Tris pH 7.5, 150 mM KCl, 3 mM MgCl2, 0.1% Tween, 0.5 mg/mL BSA, 1 mM DTT; 27 nM protein, 750 pM RNA pool; temperature not stated; high values mean tight binding.
Take “GGUCACGUCUCAAUCAACUCUUUCUCCAGGGAAAGCCCUGGUUUAUUCAACAGCUCGCAGUCAAG”: the binding signal (log2 fold change) was -0.173.
Then “GGUCACGUCUCAAUCAACUCAACUUCAGGAGUUUCCUCCUGCAAUCUCAACAGCUCGCAGUCAAG”, with 0.198.
Then “GGUCACGUCUCAAUCAACUCUAUCCCCAGGGAAAACCCUGGUUAACUCAACAGCUCGCAGUCAAG”, with 0.151; and “GGUCACGUCUCAAUCAACUCUCUAGAGGGGGGGAAAACCCCUUUGCCCUCACAUUCAACAGCUCGCAGUCAAG”, with 0.0344; and “GGUCACGUCUCAAUCAACUCUUUUUCCAGGGAAACCCCUGGCGUAUUCAACAGCUCGCAGUCAAG”, with 0.0942.
Then “GGUCACGUCUCAAUCAACUCAUCGCCCAGGGAAAGCCCUGGUAUUCUCAACAGCUCGCAGUCAAG”, with 0.0148; and “GGUCACGUCUCAAUCAACUCUUUCGAGGGGGGGAAAACCCCUUUACCCUCACCUUCAACAGCUCGCAGUCAAG”, with -0.275; and “GGUCACGUCUCAAUCAACUCAUAAGAGGGGGGGAAAACCCCUUUGCCCUCAACAUCAACAGCUCGCAGUCAAG”, with -0.0897.
With “GGUCACGUCUCAAUCAACUCUUCCCCAGGAGUUUUCUCCUGCAAAUUCAACAGCUCGCAGUCAAG”, the binding signal (log2 fold change) was -0.0606.
Then “GGUCACGUCUCAAUCAACUCAUUUUCAGGAGUUUACUCCUGCUAUCUCAACAGCUCGCAGUCAAG”, with 0.147.
Consider “GGUCACGUCUCAAUCAACUCCUUAGAGGGGGGGAAAACCCCUUUACCCUCAUCAUCAACAGCUCGCAGUCAAG”, for which the binding signal (log2 fold change) was -0.311.
With “GGUCACGUCUCAAUCAACUCUUCCCCCAGGGAAAUCCCUGGCAUUCUCAACAGCUCGCAGUCAAG”, the binding signal (log2 fold change) was -0.012.
In the case of “GGUCACGUCUCAAUCAACUCUAGUCCCAGGGAAAGCCCUGGCUUAUUCAACAGCUCGCAGUCAAG”, the binding signal (log2 fold change) was -0.0471.
For “GGUCACGUCUCAAUCAACUCAUCGCCCAGGGAAAACCCUGGUAAAUUCAACAGCUCGCAGUCAAG”, the binding signal (log2 fold change) was -0.183.
On to “GGUCACGUCUCAAUCAACUCAGUCCCCAGGGAAAUCCCUGGUUAAUUCAACAGCUCGCAGUCAAG”, for which the binding signal (log2 fold change) is -0.126.
Take “GGUCACGUCUCAAUCAACUCAUUUCCAGGAGUUUUCUCCUGUAAUCUCAACAGCUCGCAGUCAAG”: the binding signal (log2 fold change) was 0.0993.
Then “GGUCACGUCUCAAUCAACUCUAUGUCAGGAGUUUUCUCCUGUUUUUUCAACAGCUCGCAGUCAAG”, with -0.188; and “GGUCACGUCUCAAUCAACUCAAUCCCCAGGGAAAACCCUGGCUUACUCAACAGCUCGCAGUCAAG”, with -0.08; and “GGUCACGUCUCAAUCAACUCUUCCUCAGGAGUUUGCUCCUGCAUUUUCAACAGCUCGCAGUCAAG”, with -0.0533.
Consider “GGUCACGUCUCAAUCAACUCCAUAGAGGGGGGGAAAACCCCUUUACCCUCAACCUCAACAGCUCGCAGUCAAG”, for which the binding signal (log2 fold change) is -0.359.
Consider “GGUCACGUCUCAAUCAACUCUAUUCCAGGAGUUUUCUCCUGUAUACUCAACAGCUCGCAGUCAAG”, for which the binding signal (log2 fold change) is -0.0748.
Regarding “GGUCACGUCUCAAUCAACUCUUUCGAGGGGGGGAAAACCCCUUUACCCUCAUCGUCAACAGCUCGCAGUCAAG”, the binding signal (log2 fold change) is -0.57.
With “GGUCACGUCUCAAUCAACUCAAUUUCAGGAGUUUUCUCCUGCAUUUUCAACAGCUCGCAGUCAAG”, the binding signal (log2 fold change) was determined as 0.0211.
On to “GGUCACGUCUCAAUCAACUCUUUUUCCAGGGAAACCCCUGGUAUUCUCAACAGCUCGCAGUCAAG”, for which the binding signal (log2 fold change) was 0.000413.
For the sequence “GGUCACGUCUCAAUCAACUCCUUCGAGGGGGGGAAAACCCCUUUACCCUCCAUAUCAACAGCUCGCAGUCAAG”, the binding signal (log2 fold change) is -0.245.
Regarding “GGUCACGUCUCAAUCAACUCUACUUCCAGGGAAACCCCUGGUAAACUCAACAGCUCGCAGUCAAG”, the binding signal (log2 fold change) is -0.0539.
As for “GGUCACGUCUCAAUCAACUCAUCCCCAGGAGUUUCCUCCUGUUAAUUCAACAGCUCGCAGUCAAG”, the binding signal (log2 fold change) worked out at 0.0457.
Then “GGUCACGUCUCAAUCAACUCCAUAGAGGGGGGGAAAACCCCUUUGCCCUCAUCAUCAACAGCUCGCAGUCAAG”, with -0.0434; and “GGUCACGUCUCAAUCAACUCUACUUCAGGAGUUUUCUCCUGUUUUUUCAACAGCUCGCAGUCAAG”, with 0.0312.
For “GGUCACGUCUCAAUCAACUCUACGGAGGGGGGGAAAACCCCUUUACCCUCAUCCUCAACAGCUCGCAGUCAAG”, the binding signal (log2 fold change) was -0.755.
Then “GGUCACGUCUCAAUCAACUCUCCGGAGGGGGGGAAAACCCCUUUACCCUCAUCAUCAACAGCUCGCAGUCAAG”, with 0.00651; and “GGUCACGUCUCAAUCAACUCAGUUCCAGGAGUUUUCUCCUGUUUUCUCAACAGCUCGCAGUCAAG”, with -0.111.
Consider “GGUCACGUCUCAAUCAACUCAUCGCCAGGAGUUUACUCCUGUAAUCUCAACAGCUCGCAGUCAAG”, for which the binding signal (log2 fold change) is -0.0636.
Then “GGUCACGUCUCAAUCAACUCUCUAGAGGGGGGGAAAACCCCUUUACCCUCAAUCUCAACAGCUCGCAGUCAAG”, with -0.049.
For the sequence “GGUCACGUCUCAAUCAACUCAAUCCCCAGGGAAAUCCCUGGUUAUCUCAACAGCUCGCAGUCAAG”, the binding signal (log2 fold change) amounted to 0.153.
With “GGUCACGUCUCAAUCAACUCUACUUCCAGGGAAAGCCCUGGCAUACUCAACAGCUCGCAGUCAAG”, the binding signal (log2 fold change) was -0.195.
Take “GGUCACGUCUCAAUCAACUCUCUAGAGGGGGGGAAAACCCCUUUGCCCUCGUCAUCAACAGCUCGCAGUCAAG”: the binding signal (log2 fold change) is 0.374.
Then “GGUCACGUCUCAAUCAACUCCAACGAGGGGGGGAAAACCCCUUUACCCUCCACAUCAACAGCUCGCAGUCAAG”, with -0.142.
“GGUCACGUCUCAAUCAACUCCCAAAGGUUUUUUUUAGAACCACCCAUCAACAGCUCGCAGUCAAG”: the binding signal (log2 fold change) is 0.338.
With “GGUCACGUCUCAAUCAACUCAAUUUCCAGGGAAAUCCCUGGCUUAUUCAACAGCUCGCAGUCAAG”, the binding signal (log2 fold change) was -0.235.
Then “GGUCACGUCUCAAUCAACUCAUUCUCCAGGGAAAUCCCUGGUUAUUUCAACAGCUCGCAGUCAAG”, with 0.0285.
Then “GGUCACGUCUCAAUCAACUCAUCCUCCAGGGAAAUCCCUGGCUUACUCAACAGCUCGCAGUCAAG”, with -0.0608; and “GGUCACGUCUCAAUCAACUCUUUUUCCAGGGAAAACCCUGGCUAUGUCAACAGCUCGCAGUCAAG”, with -0.0596; and “GGUCACGUCUCAAUCAACUCUAUCUCAGGAGUUUACUCCUGCAAUUUCAACAGCUCGCAGUCAAG”, with -0.0904.
“GGUCACGUCUCAAUCAACUCGUUUUCAGGAGUUUACUCCUGCAUAUUCAACAGCUCGCAGUCAAG”: the binding signal (log2 fold change) was determined as 0.217.
Turning to “GGUCACGUCUCAAUCAACUCUUCGUCCAGGGAAAACCCUGGCAAUUUCAACAGCUCGCAGUCAAG”, the binding signal (log2 fold change) was -0.25.
Then “GGUCACGUCUCAAUCAACUCUUUCCCAGGAGUUUCCUCCUGCUAUUUCAACAGCUCGCAGUCAAG”, with -0.0117.
